36 compounds from the supplement of paper PMC10326071 can be followed below.

SMILES strings stand for the structures. Where “and” joins values, the source holds several entries; their conditions need not be identical. Identical values can stand only once. ± gives the standard deviation of the averaged measurements. Some of the results follow. Most values come without repeats; read them as rough.

The subject of assay [1] is SARS-CoV-2 nsp3 SARS-unique domain core (SUD-core, nsp3 residues 413-676). As to the kind of experiment: dissociation rate constant koff (BLI); higher = faster dissociation. The following applies: 100 µM; 25 °C.
The test system is the same in assay [2]. The experiment in a line: apparent dissociation constant Kd (single-concentration BLI fit); higher = weaker binding. The following applies: 100 µM; 25 °C.

On to `Cc1cn(C2O[C@@H](CO)[C@H](O)[C@H]2F)c(=O)[nH]c1=O` (stereo not given in full), for which, in assay [1], the “dissociation rate constant koff” value is 0.0146 s⁻¹. The “apparent dissociation constant Kd” value in assay [2] stood at 105 µM.
In the case of `C[C@@]1(C(=O)Nc2ccc(F)nc2)CCCN1c1nc(Nc2cc(C3CC3)[nH]n2)c2cccn2n1`, the “dissociation rate constant koff” value in assay [1] came out at 0.778 s⁻¹.
Consider `Cc1cc(Nc2ncnc3ccc(NC4=NC(C)(C)CO4)cc23)ccc1Oc1ccn2ncnc2c1`, for which the “dissociation rate constant koff” value in assay [1] was 0.107 s⁻¹. The “apparent dissociation constant Kd” value in assay [2] stood at 2670 µM.
On to `COc1ccc2c(Nc3cc(NC(=O)c4cccc(C(C)(C)C#N)c4)ccc3C)ncnc2c1`, for which the “dissociation rate constant koff” value in assay [1] is 0.176 s⁻¹. Besides, the “apparent dissociation constant Kd” value in assay [2] stood at 772 µM.
In the case of `CC(C)(C)c1cc(NC(=O)Nc2ccc(-c3cccc4c(N)nccc34)cc2)no1`, the “dissociation rate constant koff” value in assay [1] came out at 0.0667 s⁻¹.
For `COc1ccc(C(OC[C@H]2O[C@@H](n3cnc4c(=O)[nH]c(NC(=O)C(C)C)nc43)[C@H](F)[C@@H]2OP(OCCC#N)N(C(C)C)C(C)C)(c2ccccc2)c2ccc(OC)cc2)cc1` (stereo not given in full), the “dissociation rate constant koff” value in assay [1] worked out at 0.0363 s⁻¹. The “apparent dissociation constant Kd” value in assay [2] worked out at 9610 µM.
The like results for `Cc1cc(O)c(-c2ccc([C@@H](C)CN(C)C)cc2)c2c1[nH]c(=O)c1sccc12` were, in that order, 0.288 s⁻¹ and 138 µM.
Turning to `Nc1ncccc1-c1nc2ccc(-c3ccccc3)nc2n1-c1ccc(C2(N)CCC2)cc1`, the “dissociation rate constant koff” value in assay [1] was determined as 0.0774 s⁻¹.
As for `CCN1CCN(Cc2ccc(NC(=O)c3ccc(C)c(NC(=O)c4cncc(-c5cccs5)c4)c3)cc2C(F)(F)F)CC1`, the “dissociation rate constant koff” value in assay [1] worked out at 0.0321 s⁻¹. Also, the “apparent dissociation constant Kd” value in assay [2] worked out at 92.2 µM.
The corresponding values for `COc1cc2nccc(Oc3ccc(NC(=O)c4cn(C(C)C)c(=O)n(-c5ccc(F)cc5)c4=O)cc3F)c2cc1OC` are 0.109 s⁻¹ and 1460 µM.
With `Cc1cn([C@@H]2O[C@H](CO)[C@@H](O)[C@H]2O)c(=O)nc1N`, the “dissociation rate constant koff” value in assay [1] was determined as 0.157 ± 0.2 s⁻¹.
In the case of `CN1CCN(Cc2ccc(NC(=O)Nc3ccc(Oc4ccnc(N)n4)cc3)cc2C(F)(F)F)CC1`, in assay [1], the “dissociation rate constant koff” value is 0.232 s⁻¹. The “apparent dissociation constant Kd” value in assay [2] is 2260 µM.
The corresponding values for `C[C@@H](N)COc1ccc(-c2cnc3ccc(N[C@H](C)c4cccc(F)c4)nn23)cc1` are 0.329 s⁻¹ and 1890 µM.
As for `CN1CCC(CNc2ccc3ncc(-c4cccc(OC(F)(F)F)c4)n3n2)CC1`, the “dissociation rate constant koff” value in assay [1] was determined as 0.0535 s⁻¹. The “apparent dissociation constant Kd” value in assay [2] worked out at 32.8 µM.
On to `COCCOc1cc2nccc(Nc3n[nH]c(C)c3C)c2cc1S(=O)(=O)C(C)(C)C`, for which, in assay [1], the “dissociation rate constant koff” value stood at 0.203 s⁻¹.
On the same count and under the same terms, the same measure for `COc1cc(C(=O)NC2CCN(C)CC2)ccc1Nc1ncc2c(n1)N(C1CCCC1)CC(F)(F)C(=O)N2C`: 0.0662 s⁻¹; for `Nc1ncnc2c1ncn2[C@@H]1O[C@@H]2COP(O)(=S)O[C@@H]3[C@H](O)[C@@H](COP(=O)(S)O[C@H]2[C@H]1O)O[C@H]3n1cnc2c(N)ncnc21` (stereo not given in full): 0.0188 s⁻¹.
Regarding `NC(=O)c1ncn([C@@H]2O[C@H](CO)[C@@H](O)[C@H]2O)n1`, in assay [1], the “dissociation rate constant koff” value turned out to be 0.0106 s⁻¹. In addition, the “apparent dissociation constant Kd” value in assay [2] worked out at 56.5 µM.
Take `O=C1c2c(O)ccc(O)c2C(=O)c2c(NCCNCCO)ccc(NCCNCCO)c21`: the “dissociation rate constant koff” value in assay [1] is 1.21 s⁻¹ and 0.473 s⁻¹.
For the compound `Nc1ccn([C@@H]2O[C@H](CO)[C@@H](O)C2(F)F)c(=O)n1`, in assay [1], the “dissociation rate constant koff” value was 0.0112 s⁻¹ and 0.0114 s⁻¹.
`C=CC(=O)Nc1cccc(Nc2nc(Nc3ccc(NC4CN(CCF)C4)cc3OC)ncc2C(F)(F)F)c1`: the “dissociation rate constant koff” value in assay [1] is 0.941 s⁻¹. In assay [2], the “apparent dissociation constant Kd” value stood at 1820 µM.
With `CCCCNc1ncc(-c2ccc(CN3CCOCC3)cn2)c(NC2CCC(O)CC2)n1` (stereo not given), the “dissociation rate constant koff” value in assay [1] was 0.0929 s⁻¹.
For `C=CC(=O)Nc1ccc2ncnc(Nc3ccc(OCc4cccc(F)c4)c(Cl)c3)c2c1`, the “dissociation rate constant koff” value in assay [1] was 0.305 s⁻¹. Also, the “apparent dissociation constant Kd” value in assay [2] was 3420 µM.
The like results for `COC[C@](CO)(OC[C@H]1O[C@@H](n2ncc3c(NC4CCCC4)nc(Cl)nc32)[C@H](O)[C@@H]1O)P(=O)(O)O` were, in that order, 0.49 s⁻¹ and 2400 µM.
Regarding `C=CC(=O)N1CCC(CNc2ncnc(N)c2-c2ccc(Oc3ccccc3)cc2)CC1`, the “dissociation rate constant koff” value in assay [1] was determined as 0.417 s⁻¹. For the same compound, in assay [2], the “apparent dissociation constant Kd” value was 393 µM.
The like results for `C1=C/COCc2cc(ccc2OCCN2CCCC2)Nc2nccc(n2)-c2cccc(c2)COC/1` were, in that order, 0.598 s⁻¹ and 2460 µM.
The like results for `Oc1ccc(Nc2nc(-c3ccc(Cl)cc3)cs2)cc1` were, in that order, 0.00729 s⁻¹ and 40.3 µM.
On to `O=c1ccn([C@H]2C[C@H](O)[C@@H](COP(=O)(O)OP(=O)(O)OP(=O)(O)O)O2)c(=O)[nH]1`, for which, in assay [1], the “dissociation rate constant koff” value amounted to 0.0195 s⁻¹. The “apparent dissociation constant Kd” value in assay [2] is 37.5 µM.
With `CN(C)Cc1ccc(-c2cnn3c(-c4cccc(NC(=O)c5cccc(C(F)(F)F)c5)c4)ccnc23)cc1`, the “dissociation rate constant koff” value in assay [1] turned out to be 0.00467 s⁻¹. Further, in assay [2], the “apparent dissociation constant Kd” value was determined as 4770 µM.
The like results for `C[C@H](c1ccnc(Nc2nc3ccc(-c4cc(N(C)C)ncn4)cc3[nH]2)c1)N1CCN(C(=O)CC(F)(F)F)CC1` were, in that order, 0.0146 s⁻¹ and 36.7 µM.
In the case of `O=c1[nH]cnc2c1ncn2[C@H]1CC[C@@H](CO)O1`, in assay [1], the “dissociation rate constant koff” value was 0.124 ± 0.14 s⁻¹.
In the case of `CCN(CC)CCC(=O)N1N=C(c2c(-c3ccccc3)c3cc(Br)ccc3[nH]c2=O)CC1c1ccc(Br)cc1` (stereo not given), in assay [1], the “dissociation rate constant koff” value was 0.0737 s⁻¹. For the same compound, in assay [2], the “apparent dissociation constant Kd” value was 8190 µM.
The like results for `Cn1nccc1Nc1nccc(-c2ccn([C@H](CO)c3ccc(Cl)c(F)c3)c(=O)c2)n1` were, in that order, 0.255 s⁻¹ and 2930 µM.
For the compound `COc1nn(C)cc1Nc1nccc(-c2c[nH]c3c(NC(=O)[C@@H](C)N4CCN(C)CC4)cccc23)n1`, in assay [1], the “dissociation rate constant koff” value is 0.329 s⁻¹. The “apparent dissociation constant Kd” value in assay [2] was 129 µM.
Regarding `CN1CCN(S(=O)(=O)c2ccc(-c3cnc(N)c(C(=O)Nc4cccnc4)n3)cc2)CC1`, in assay [1], the “dissociation rate constant koff” value was determined as 0.0228 s⁻¹.
As to `CCN1C(C)(C)CC(Oc2ccc(C(=O)Nc3ccc(NC(=O)Nc4cc(C(C)(C)C)on4)cc3)nc2)CC1(C)C`, the “dissociation rate constant koff” value in assay [1] is 0.0418 s⁻¹. Further, the “apparent dissociation constant Kd” value in assay [2] stood at 20.6 µM.
